# Results published in the supplement of paper PMC9334596.
# Several values for one entry are separate records, joined by “and”; a condition that tells them apart may be missing. Equal values may be shown once. In all, about 5,300 compounds were measured (“PER2::LUC luminescence relative to vehicle control”: median about 0.96, highest 2% from about 1.3 on). The list shows a part of the results.
# Tested on: mPer2Luc MEF
# Experiment: PER2::LUC luminescence relative to vehicle control (fold of vehicle); higher = higher PER2::LUC reporter signal
# Conditions: 10 µM
# How it was run: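 In 384-well plates, ~3000 mPer2Luc reporter mouse embryonic fibroblasts per well were cultured in DMEM with 10% FBS at 37 °C and 5% CO2 for 48 h before compounds from commercial libraries were added at 10 μM. ONE-Glo luciferase readings were taken 24 h and 30 h after treatment. Each value is PER2::LUC luminescence given as fold of vehicle control.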
SMILES,PER2::LUC luminescence (time after treatment 24 h),PER2::LUC luminescence (time after treatment 30 h)
COc1cc(C(=O)NS(=O)(=O)c2ccccc2C)ccc1Cc1cn(C)c2ccc(NC(=O)OC3CCCC3)cc12,0.989,1.24
CN[C@H]1CN(c2ccc3c(=O)c(C(=O)O)cn(-c4nccs4)c3n2)C[C@@H]1OC,0.84,0.409
CC1=C(C(=O)OC(C)C)C(c2cccc([N+](=O)[O-])c2)C(C(=O)OC2CN(C(c3ccccc3)c3ccccc3)C2)=C(N)N1 (configuration not stated),1.07,0.971
Cc1cc(C2CCCCC2)n(O)c(=O)c1,0.409 and 0.568 and 0.35,0.692 and 0.375 and 0.376
CNC(=O)c1ccccc1Nc1nc(Nc2ccc3c(c2OC)CCC[C@H](N2CCN(CCO)CC2)C3)ncc1Cl,0.18,0.156
S=C1SCN(Cc2ccccc2)CN1Cc1ccccc1,0.887,0.953
O=C(Nc1ccc(C(=O)Nc2ccc(C(=O)Nc3ccc(S(=O)(=O)O)c4cc(S(=O)(=O)O)cc(S(=O)(=O)O)c34)cc2)cc1)Nc1ccc(C(=O)Nc2ccc(C(=O)Nc3ccc(S(=O)(=O)O)c4cc(S(=O)(=O)O)cc(S(=O)(=O)O)c34)cc2)cc1,0.939,0.828
CCc1cncnc1N1CCN(Cc2nc3ccc(C(F)(F)F)cc3[nH]2)CC1,0.924,0.604
O=C(O)c1cc2cc(Cl)ccc2[nH]1,0.975,0.87
CCn1nnc2c(N3CCOCC3)nc(-c3ccc(NC(=O)Nc4ccc(C(=O)N5CCN(C)CC5)cc4)cc3)nc21,0.33,0.441
NS(=O)(=O)c1cc(C(=O)O)c(NCc2ccco2)cc1Cl,0.776,0.876
NC(=S)c1ccc[n+]([C@@H]2O[C@@H](COP(=O)([O-])OP(=O)(O)OC[C@H]3O[C@@H](n4cnc5c(N)ncnc54)C(OP(=O)(O)O)[C@H]3O)C(O)C2O)c1 (some centres not stated),1.25,0.811
COc1ccc2ccc(=O)oc2c1,1,1.01
COc1ccc2oc(-c3ccccc3)c(OC)c(=O)c2c1,1.54,1.73
O=C(O)c1cc(=O)c2ccccc2o1,0.998 and 1.05,0.946 and 1.14
CCC(CC)C(c1ccc(Nc2nc3ccccc3s2)cc1)n1cncn1 (configuration not stated),1.1,1.23
CCOc1cc([C@@H](CS(C)(=O)=O)N2C(=O)c3cccc(NC(C)=O)c3C2=O)ccc1OC,0.907 and 0.859,0.969 and 0.905
CCn1c(=O)c(-c2cc(NC(=O)Nc3ccccc3)c(F)cc2Br)cc2cnc(NC)cc21,0.765,0.66
CC(C)(C)NCC(O)COc1cccc2[nH]c(=O)[nH]c12 (configuration not stated),0.958,0.913
C#CCC(Cc1cnc2nc(N)nc(N)c2n1)c1ccc(C(=O)N[C@@H](CCC(=O)O)C(=O)O)cc1 (some centres not stated),0.899,0.678
O=C(C[S+]([O-])Cc1ccco1)NC/C=C\COc1cc(CN2CCCCC2)ccn1 (configuration not stated),1.01,1
CNC(=O)[C@H]1O[C@@H](n2cnc3c(NCc4cccc(I)c4)nc(Cl)nc32)[C@H](O)[C@@H]1O,0.498,1.15
OCc1ccccc1O,0.985 and 0.906,0.877 and 0.839
O=C(c1ccccc1)c1ccc2n1CCC2C(=O)O (configuration not stated),1.01 and 0.944 and 0.906,1.12 and 1.05 and 0.795
N[C@@H](C(=O)O)[C@@H](O)[C@H](O)[C@H](O)CO,0.937,0.882
COc1c(N2CCNC(C)C2)c(F)cc2c(=O)c(C(=O)O)cn(C3CC3)c12 (configuration not stated),0.816,0.756

SMILES,PER2::LUC luminescence (time after treatment 24 h),PER2::LUC luminescence (time after treatment 30 h)
CC1(C)CC2C1CCC1(C)OC2(C)CCC1O (configuration not stated),0.92,0.899
NS(=O)(=O)c1cccc2c1c([N+](=O)[O-])cc1[nH]c(=O)c(=O)[nH]c12,0.973,0.899
Cc1ccccc1C(C(=O)NC1CCCCC1)N(C(=O)Cn1cnc2ccccc21)c1cccc(F)c1 (configuration not stated),0.892,0.875
O=C(Nc1ccccc1Br)N[C@@H]1CCN(c2ccc(C(F)(F)F)cn2)C1,1.14,1.17
NC(=O)[C@@H]1CCCN1C(=O)[C@H](Cc1c[nH]cn1)NC(=O)[C@@H]1CCC(=O)N1,0.616,1
O=C(NOCC(O)CO)c1cc(Br)c(F)c(F)c1Nc1ccc(I)cc1F (configuration not stated),0.749,0.684
C/C1=C\CC(C)(C)/C=C/C(=O)/C(C)=C/CC1,1.08,1.06
CN(C)CC(c1ccc(O)cc1)C1(O)CCCCC1 (configuration not stated),1.05 and 1.17,1.06 and 1.04
COC1=C(OC)C(=O)C(C/C=C(\C)CC/C=C(\C)CC/C=C(\C)CC/C=C(/C)CC/C=C(\C)CC/C=C(\C)CC/C=C(\C)CC/C=C(\C)CC/C=C(\C)CCC=C(C)C)=C(C)C1=O,0.941,0.909
C=C(C)[C@@H]1CC=C(CO)CC1,0.845,0.856
c1ccc(CNc2ncnc3nc[nH]c23)cc1,0.886,1.24
COc1cccc(C(=O)NCCN2CCN(c3ccc(Cl)cc3)CC2)c1,0.833,0.96
CC(=O)Oc1cccc(C)c1,1 and 0.978,0.971 and 0.973
O=C(Nc1ccccc1)Nc1ccc(-c2ccc(C(=O)[C@@H]3CCC[C@H]3C(=O)O)cc2)cc1,1.18,1.16
FC(F)(F)COCC(F)(F)F,0.965,0.954
CN1Cc2c(N)cccc2C(c2ccccc2)C1 (configuration not stated),0.908,0.859
CN(C)C/C=C/C(=O)Nc1cc2c(Nc3ccc(F)c(Cl)c3)ncnc2cc1O[C@H]1CCOC1,0.143 and 0.099 and 0.084,0.115 and 0.096 and 0.072
O=C1NC(=O)C(c2ccccc2)(c2ccccc2)N1,0.908,0.86
CC(C)(O)c1ccccc1CC[C@@H](SCC1(CC(=O)O)CC1)c1cccc(/C=C/c2ccc3ccc(Cl)cc3n2)c1,1.05 and 1.02,0.978 and 1.25
O=C1NC(=O)C(=Cc2ccc(-c3ccc(F)cc3)o2)S1 (stereo in doubt),1.16,1.17
CCN[C@@H]1C[C@H](N)[C@@H](O[C@H]2OC(CN)=CC[C@H]2N)[C@H](O)[C@H]1O[C@H]1OC[C@](C)(O)[C@H](NC)[C@H]1O,1.14,0.805
COc1ccc2c(=O)c(CC(=O)O)coc2c1,0.908,0.978
C[C@@H]1O[C@@H](O[C@@H]2[C@@H](O)[C@H](O)[C@@H](CO)O[C@H]2c2c(O)cc(O)c3c(=O)cc(-c4ccc(O)cc4)oc23)[C@H](O)[C@H](O)[C@H]1O,1.04,0.979
CNc1ccccc1C(=O)N1CCc2c([nH]c3ccccc23)C1=O,1.56,1.79
Cc1cc(N)c2ccccc2[n+]1CCCCCCCCCC[n+]1c(C)cc(N)c2ccccc21,0.684 and 0.678,0.593 and 0.545
